The values below come from patent US7985561B2 (priority 2006, dated 2011).

Like-named read-outs stand apart in the source and are kept apart here.

Test [1] relates to breast cancer patients.
The test system of test [2] is breast cancer patients. Type of test: in vivo, human.
Where [3] appears, read: 5-year breast cancer survival, Ala/Ala vs Val/Val & Val/Ala (ref.), recessive model.
Setting [4] is: 5-year breast cancer survival, Ala/Ala vs Val/Val & Val/Ala (ref.), recessive model, multivariate Cox regression.
Setting [5] is: 5-year breast cancer survival, Ala/Ala vs Val/Val (ref.), multivariate Cox regression.
[6] abbreviates: 5-year breast cancer survival, Ala/Ala vs Val/Val (ref.), patients receiving the drug-based chemotherapy.
Where [7] appears, read: 5-year breast cancer survival, Val/Ala & Ala/Ala vs Val/Val (ref.), dominant model.
Setting [8] is: 5-year breast cancer survival, Val/Ala & Ala/Ala vs Val/Val (ref.), dominant model, multivariate Cox regression.
Where [9] appears, read: 5-year breast cancer survival, Val/Ala vs Val/Val (ref.), multivariate Cox regression.
[10] abbreviates: 5-year breast cancer survival, Val/Ala vs Val/Val (ref.), patients receiving the drug-based chemotherapy.
Where [11] appears, read: 10-year breast cancer survival, Ala/Ala vs Val/Val & Val/Ala (ref.), recessive model, adjusted Cox regression.
[12] abbreviates: 10-year breast cancer survival, Ala/Ala vs Val/Val & Val/Ala (ref.), recessive model, patients receiving the drug-based chemotherapy.
[13] abbreviates: 10-year breast cancer survival, Ala/Ala vs Val/Val (ref.), Cox regression adjusted for age, study site, race, tumor size, nodes, grade, ER, p53.
Where [14] appears, read: 10-year breast cancer survival, Ala/Ala vs Val/Val (ref.), patients receiving the drug-based chemotherapy.
The mark [15] stands for this setting: 10-year breast cancer survival, Val/Ala & Ala/Ala vs Val/Val (ref.), dominant model, adjusted Cox regression.
Where [16] appears, read: 10-year breast cancer survival, Val/Ala & Ala/Ala vs Val/Val (ref.), dominant model, patients receiving the drug-based chemotherapy.
Where [17] appears, read: 10-year breast cancer survival, Val/Ala vs Val/Val (ref.), Cox regression adjusted for age, study site, race, tumor size, nodes, grade, ER, p53.
[18] abbreviates: 10-year breast cancer survival, Val/Ala vs Val/Val (ref.), patients receiving the drug-based chemotherapy.

On to `O=c1[nH]cc(F)c(=O)[nH]1` [5-Fluorouracil, 5-fluorouracil], for which the “HR (95% CI), univariate” value with breast cancer patients [1] (setting [3]) is 1.97 (1.05-3.73); in the test on breast cancer patients [1] (setting [6]), 5.18 (1.50-17.8); in the test on breast cancer patients [1] (setting [7]), 3.78 (1.16-12.2); in the test on breast cancer patients [1] (setting [10]) it was 3.10 (0.92-10.4); in the test with breast cancer patients [1] (setting [12]), 1.90 (1.05-3.42); with breast cancer patients [1] (setting [14]), 4.63 (1.56-13.72). For the same compound, the “HR (95% CI), univariate” value is 3.49 (1.25-9.74) with breast cancer patients [1] (setting [16]) and 2.95 (1.03-8.50) in the test on breast cancer patients [1] (setting [18]). Besides, the “HR (95% CI), multivariate” value with breast cancer patients [1] (setting [4]) is reported as 2.74 (1.32-5.68); in the test on breast cancer patients [1] (setting [5]), 7.22 (1.77-29.4); in the test with breast cancer patients [1] (5-year breast cancer survival, Ala/Ala vs Val/Val (ref.), multivariate Cox regression, listed as 5-FU), 7.22; with breast cancer patients [1] (setting [8]) it was 3.79 (1.11-13.0); in the test on breast cancer patients [1] (setting [9]), 2.24 (0.61-8.19); in the test with breast cancer patients [1] (setting [11]), 2.75 (1.40-5.39). The “HR (95% CI), multivariate” value with breast cancer patients [1] (setting [13]) is recorded as 6.85 (1.86-25.3); in the test on breast cancer patients [1] (10-year breast cancer survival, Ala/Ala vs Val/Val (ref.), Cox regression adjusted for age, study site, race, tumor size, nodes, grade, ER, p53, listed as 5-FU), 6.85; in the test with breast cancer patients [1] (setting [15]), 3.84 (1.30-11.4); with breast cancer patients [1] (setting [17]) it was 2.39 (0.76-7.55).
With `COc1cccc2c1C(=O)c1c(O)c3c(c(O)c1C2=O)C[C@@](O)(C(=O)CO)C[C@@H]3O[C@H]1C[C@H](N)[C@H](O)[C@H](C)O1` [Doxorubicin], the “deaths among Ala/Ala carriers” value with breast cancer patients [2] (doxorubicin-treated, among 11 patients, homozygous Ala/Ala, very poor survival) was 6. Also, the “deaths among Val/Val carriers” value in the test with breast cancer patients [2] (doxorubicin-treated, among 21 patients, homozygous Val/Val, very good survival) came to 1. Also, in the test with breast cancer patients [2] (doxorubicin-treated, among 38 patients, Val/Ala, intermediate survival), the “deaths among heterozygous carriers” value was found to be 8. Further, the “RR of breast cancer survival by MnSOD genotype, multivariate Cox analysis” value in the test with breast cancer patients [2] (patients that received doxorubicin treatment (n=70), mostly with cyclophosphamide (AC therapy), genotype entered as Val/Val, Val/Ala, Ala/Ala, 95% CI: 1.97-16.1) came to 5.63. In addition, the “HR (95% CI), univariate” value in the test on breast cancer patients [1] (setting [3]) was 2.56 (1.50-4.38); in the test on breast cancer patients [1] (setting [6]), 2.78 (1.39-5.56); with breast cancer patients [1] (setting [7]) it was 1.53 (0.84-2.77); with breast cancer patients [1] (setting [10]) it was 1.16 (0.61-2.21); with breast cancer patients [1] (setting [12]) it was 2.57 (1.53-4.35); in the test with breast cancer patients [1] (setting [14]) it was 2.76 (1.41-5.40). In addition, the “HR (95% CI), univariate” value was 1.50 (0.84-2.68) in the test with breast cancer patients [1] (setting [16]) and 1.13 (0.60-2.10) in the test on breast cancer patients [1] (setting [18]). For the same compound, the “HR (95% CI), multivariate” value in the test with breast cancer patients [1] (setting [4]) is reported as 2.42 (1.32-4.44); in the test with breast cancer patients [1] (setting [5]) it was 3.07 (1.13-8.29); in the test on breast cancer patients [1] (5-year breast cancer survival, Ala/Ala vs Val/Val (ref.), multivariate Cox regression, listed as doxorubicin) it was 3.07; in the test with breast cancer patients [1] (setting [8]), 1.14 (0.60-2.16); in the test on breast cancer patients [1] (setting [9]), 0.85 (0.42-1.72); in the test with breast cancer patients [1] (setting [11]) it was 2.44 (1.33-4.47). Moreover, the “HR (95% CI), multivariate” value is 3.16 (1.18-8.51) in the test with breast cancer patients [1] (setting [13]); 3.16 in the test with breast cancer patients [1] (10-year breast cancer survival, Ala/Ala vs Val/Val (ref.), Cox regression adjusted for age, study site, race, tumor size, nodes, grade, ER, p53, listed as doxorubicin); 1.09 (0.58-2.04) in the test with breast cancer patients [1] (setting [15]); 0.83 (0.41-1.64) with breast cancer patients [1] (setting [17]).
